From the supplement of paper PMC11417369 come the findings set out here.

± gives the standard deviation of the averaged measurements. The list shows a part of the results.

This assay relates to PfAP2-G AP2 domain (GST-tagged). Kind of assay: gcPBM binding intensity (ln(normalized median fluorescence intensity)); higher = stronger DNA binding. Summed up:
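In this array assay, P. falciparum DNA-binding domains with a GST tag, expressed in E. coli, were applied for 1 h to primer-extended double-stranded 36-bp intergenic genomic probes and negative controls on an Agilent 4 × 180k array. Bound protein was visualised with Alexa488 anti-GST antibody at 488 nm. Binding intensity is the highest Masliner-normalised natural-log median intensity across replicate spots of either probe orientation.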
As for “TAAAAATTGCACAGAAGTACAGTATAAATATATATA [XGTACX_site3421]”, the “gcPBM binding intensity (ln)” value is 11.5 ± 1.
Under “ATAATATATGAGCAATGTACATATTTCTCATTGCAC [XGTACX_site2253]” stands 10.9 ± 0.41.
For “GTTCCAGGCATTCGTGCGCACAAATAGAAACAATTA [GTGCAC_site9824]”, the “gcPBM binding intensity (ln)” value was 10.6 ± 0.41.
Under “TTATATTAATATATATGTACATATATTTTTTTTATA [XGTACX_site6981]” stands 11.3 ± 0.74; under “TTGTGAAACATCAAGAAAAAGAAATAATAAAAAGAA [GTGCAC_negctrl_site38]”, 9.705 ± 0.092; under “GTTGAACATATATGCACACACATAAAATAAAAAAAA [CACACA_site2413]”, 10.3 ± 0.42.
Then “ACGTAAGCGAATAAAAGTACATATATTAAAAAAAAA [XGTACX_site4458]”, with 11.4 ± 0.96; and “TTCTTAAGGAACGAACGTACAGAATAAAAAGTAAAA [XGTACX_site4294]”, with 11.2 ± 0.66; and “AAAAGGTATCCACATACGCACACCAAAAAAAAAAAT [CACACA_site347]”, with 10.7 ± 0.67.
Then “TCTTTTTTTTTTTTTTTTTTTTTTTATTTATTCATA [CACACA_negctrl_site1827]”, with 9.785 ± 0.092; and “ATACAACAATGTGAATTATATATGGATGGAGAATGA [GTGCAC_negctrl_site148]”, with 10 ± 0.028.
“AAATAAATCTATAATACACACAAAAATATAAAATGC [CACACA_site7700]”: the “gcPBM binding intensity (ln)” value was 10.04 ± 0.021.
Under “CTATTATTTTTAAATTGTACTATAACAAAATGTATA [XGTACX_site3916]” stands 10.8 ± 0.59; under “ATATATATGTTTTATAGTACACACATAAATGGACAT [XGTACX_site4538]”, 11.5 ± 0.97.
Under “TTAAGAAATAACAATGCACACATTTAGGTCTTTTAT [CACACA_site3285]” stands 9.88 ± 0.14; under “ATAACTTGTATATATACACACACACCCTTTCTTTTT [CACACA_site8600]”, 10.2 ± 0.11; under “TATATTATATTATACATACACACCCATATAATATGT [CACACA_site869]”, 10.2 ± 0.11.
Under “TTAGATATGTGTAAGGGTACAAAATACTTTACATTT [XGTACX_site8204]” stands 11 ± 0.66; under “CTTCAATATATTCTTACACACTTAAAAAAAAAAATA [CACACA_site4287]”, 9.97 ± 0.47; under “GTGTTTTTATTATTTTGTACACATATATTTAATATT [XGTACX_site2109]”, 11.5 ± 0.87.
For “TTTTTTTTGTAATACGCATGCTAAAAATATTTATAA [TGCATGCA_site656]”, the “gcPBM binding intensity (ln)” value stood at 10.4 ± 0.53.
Then “CGTATTTATAGAATTACACACCATATTGTAATTATT [CACACA_site7722]”, with 9.985 ± 0.064; and “TTTTCGATGTTGGTAGGAAGTTTGGTACACGTAGTA [TGCATGCA_negctrl_site145]”, with 11.1 ± 0.8; and “ATTTAAATAAGATATACACACAAGTAGAAGACTATG [CACACA_site806]”, with 10.2 ± 0.13.
Then “TTATATTATTCGTGTGTGCACGATATTTCATAATTG [GTGCAC_site9767]”, with 10.3 ± 0.25; and “CAAAAAATTCAACACACACACACACCGATAAATAAA [CACACA_site8330]”, with 10.1 ± 0.16.
Then “AAAATTCATATATACACACACGCACATATATATATA [CACACA_site90]”, with 10.4 ± 0.52; and “GAATGTCTAATTTTGATGCACACTTTTGTGCAATTA [CACACA_site2902]”, with 10.2 ± 0.24.
As for “AAAACTATTTGTAAAAGTACATAATAAATAAATAAA [XGTACX_site7922]”, the “gcPBM binding intensity (ln)” value stood at 11.2 ± 0.71.
Then “ATAATGTTTTATAATACACACATTATGTATATAAAT [CACACA_site4077]”, with 10.03 ± 0.078; and “TTGTCCCTATAAGGGGAACACACATAAATGAATATA [CACACA_site8250]”, with 11 ± 0.63.
Then “TTTTTATTGTTAATTTTAATTTTTTTTTTTTAATGC [CACACA_negctrl_site162]”, with 9.525 ± 0.007; and “TTGTAACCTATGCACGCACACAAGAAAAAAACAAAA [CACACA_site3775]”, with 10.6 ± 0.49.
Under “TATATATATATATATTGTACACATTGTGTTTAAATA [XGTACX_site5104]” stands 11.4 ± 0.91.
Regarding “AATAGAATGTAATATACACACATATATTTCTCTTTT [CACACA_site2630]”, the “gcPBM binding intensity (ln)” value was 9.46 ± 0.54.
With “TTTCCTTATAAAAATACACACAAACTTTAATTAAAA [CACACA_site7710]”, the “gcPBM binding intensity (ln)” value was 10.06 ± 0.078.
“TTTCTTTTTAAATGCTGTACAAAGGGTGACGTTAAA [XGTACX_site4724]”: the “gcPBM binding intensity (ln)” value was determined as 11.1 ± 0.7.
Under “TATTACACATATTATACACACATATATTATAGATAT [CACACA_site6839]” stands 10.07 ± 0.085; under “TATTCCAAATTTACTAGTACATAATCCATCCGATAA [XGTACX_site1558]”, 11.1 ± 0.73; under “CTTATATAATTCGATAGTACATATTTTTATATATAT [XGTACX_site4045]”, 11 ± 0.7.
Under “ATTTTTTATATTTAGTGTACATGTTTTAATTTATAA [XGTACX_site7512]” stands 11.5 ± 0.93; under ATAACTTTATTCAGTTTGCACTTTTATAACAAAAGA, 10.2 ± 0.23; under “ATTGAATATGTAAATGCACACCAAAAAAAAAAAAAA [CACACA_site9189]”, 9.94 ± 0.41.
On to “TTTTTCCTATTTTTAGTGCACATATAAATAAATAAA [GTGCAC_site9821]”, for which the “gcPBM binding intensity (ln)” value worked out at 10.5 ± 0.45.
